Experimental data: the supplement of paper PMC10126150
Values marked as one replicate rest on one cluster of the flow cell; about a third of the high ones do not repeat.

system: ATP; test: switch fluorescence ratio, 500 uM ATP over buffer (Cy3 cluster intensity, sum of 5 cycles each) (fold (ratio)); higher = stronger signal-on switching upon ATP binding; sequences stand for … in TCGTCGGCAGCGTCAGATGTGTATAAGAGACAGTTTTTTTTTTTTTTTTTTTTTTTTT…TC; settings: aptamer strand: ATP DNA aptamer (quencher-CACCTGGGGGAGTATTGCGGAGGAAGG + anchor), 100 nM annealed; ATP concentration: 500 uM; one replicate
In short: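 Exposure to 500 uM ATP lasted 15 min at 22 °C before imaging, and a selection-buffer image was taken beforehand, for Cy3-labelled switching-strand clusters on a modified Illumina MiSeq flow-cell annealed to 100 nM quencher-labelled ATP aptamer. Five buffer/ATP cycles were run with NaOH stripping and re-annealing between them. The fluorescence ratio per cluster is summed target-cycle over summed buffer-cycle Cy3 intensity, averaged per switch-domain sequence. Clusters outside 100-1000 RFU were excluded.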

| Sequence | switch fluorescence ratio |
| --- | --- |
| ACAGAAGGAT | 1.04 |
| ACAGAATCAA | 1.02 |
| ACAGAATCGT | 1.03 |
| ACAGACAGTC | 0.804 |
| ACAGAGATCA | 1 |
| ACAGAGATCG | 0.997 |
| ACAGATATAT | 1.02 |
| ACAGATCTGT | 0.998 |
| ACAGCACCGT | 1.36 |
| ACAGCATTCG | 1.06 |
| ACAGCATTGG | 1.06 |
| ACAGCCAATG | 1 |
| ACAGCCCCTA | 1.05 |
| ACAGCGAGTG | 0.936 |
| ACAGCTAGCC | 1.03 |
| ACAGCTAGGT | 1.07 |
| ACAGCTTATG | 1.07 |
| ACAGGCACTC | 1.15 |
| ACAGGCCACG | 1.02 |
| ACAGGGCAAT | 0.959 |
| ACAGGTGAAT | 1.68 |
| ACAGTAAATT | 1.03 |
| ACAGTAAGTA | 1.03 |
| ACAGTACTCC | 1.63 |
| ACAGTGATTG | 1.04 |

| Sequence | switch fluorescence ratio |
| --- | --- |
| ACAGTGCTCA | 1.01 |
| ACAGTGGGGT | 1.02 |
| ACAGTGTTAT | 0.942 |
| ACAGTTCTCT | 1.03 |
| ACATACTATG | 1.17 |
| ACATAGACAG | 0.996 |
| ACATAGTCCA | 1.01 |
| ACATATCAAA | 1.05 |
| ACATATCATA | 1.07 |
| ACATATTATT | 1.03 |
| ACATATTCGT | 1 |
| ACATCAGGAA | 1.04 |
| ACATCCCTG | 0.995 |
| ACATCCTATT | 1.03 |
| ACATCGCGGG | 1.01 |
| ACATCTCCTT | 0.993 |
| ACATCTGAGC | 1.05 |
| ACATGACCCC | 1.15 |
| ACATGCAT | 1.03 |
| ACATGCCCGT | 1 |
| ACATGCTTTC | 1.06 |
| ACATGGGAG | 1.04 |
| ACATGTAACC | 0.979 |
| ACATGTTGTC | 0.984 |
| ACATGTTTTG | 0.981 |

| Sequence | switch fluorescence ratio |
| --- | --- |
| ACATTAATAG | 1.02 |
| ACATTAGAAG | 1.05 |
| ACATTAGATT | 1.02 |
| ACATTAGCGG | 1.02 |
| ACATTAGTT | 0.999 |
| ACATTATAGC | 1.04 |
| ACATTATTGG | 1.04 |
| ACATTCGTTT | 0.998 |
| ACATTGAAAT | 0.993 |
| ACATTGAGG | 1 |
| ACATTGATCT | 1.04 |
| ACATTGGGGT | 0.972 |
| ACATTGTAAC | 1.07 |
| ACATTGTATC | 1.02 |
| ACATTTCGTT | 1.01 |
| ACCAAAACGG | 1.07 |
| ACCAACCGCT | 1.28 |
| ACCAACCGGT | 0.983 |
| ACCAACTGAT | 1.05 |
| ACCAAGAGTC | 1.05 |
| ACCACCGTGT | 1.04 |
| ACCACCTCGG | 1.07 |
| ACCACGGGGA | 1.01 |
| ACCACGTGGA | 1.01 |
| ACCACTATTT | 1.06 |

| Sequence | switch fluorescence ratio |
| --- | --- |
| ACCACTCTCA | 0.992 |
| ACCAGACTGT | 1.08 |
| ACCAGCGTAC | 3.38 |
| ACCAGCGTAG | 1 |
| ACCAGGTAAG | 1.05 |
| ACCAGTCTCC | 1.15 |
| ACCAGTGACT | 1.13 |
| ACCAGTGATA | 1 |
| ACCATACCTG | 1.23 |
| ACCATCCAA | 1.01 |
| ACCATCGGCG | 0.978 |
| ACCATGAGAC | 1.03 |
| ACCATTCTAG | 0.996 |
| ACCATTTCGG | 1.02 |
| ACCATTTGTT | 1.02 |
| ACCCAAAAAC | 1.06 |
| ACCCACCACT | 1.37 |
| ACCCAGTCTT | 1.02 |
| ACCCATGTGG | 1.07 |
| ACCCATTTGT | 0.994 |
| ACCCCGAGTG | 2.74 |
| ACCCCGGCAT | 1.19 |
| ACCCCGTCGT | 1.05 |
| ACCCCTCGCG | 1.34 |
| ACCCCTTTCG | 1.07 |

| Sequence | switch fluorescence ratio |
| --- | --- |
| ACCCGAGGGG | 1.11 |
| ACCCGGCGAG | 1.02 |
| ACCCGGGGCC | 1.01 |
| ACCCGGTTA | 1.02 |
| ACCCGTGCGC | 1.11 |
| ACCCGTGTTT | 1.01 |
| ACCCGTTGGT | 1.01 |
| ACCCTGGGAG | 1.01 |
| ACCCTTCAAT | 1.01 |
| ACCCTTTCCA | 1.05 |
| ACCCTTTGGG | 1.01 |
| ACCGAAACTT | 1.09 |
| ACCGAACTGG | 1.12 |
| ACCGACAACT | 1.28 |
| ACCGAGAACT | 1.06 |
| ACCGAGACCT | 1.38 |
| ACCGATGTAG | 1.03 |
| ACCGATTTCG | 1.06 |
| ACCGCAGAAA | 2.39 |
| ACCGCATGCG | 1.01 |
| ACCGGAGCCC | 2.44 |
| ACCGGCTTTT | 1.08 |
| ACCGGGTAGT | 0.958 |
| ACCGGTATAC | 2.61 |
| ACCGTCATTA | 1.1 |

| Sequence | switch fluorescence ratio |
| --- | --- |
| ACCGTCGGTA | 1.04 |
| ACCGTCTGTT | 1 |
| ACCGTGCTCA | 1.04 |
| ACCGTGTGGG | 0.997 |
| ACCTAACTTA | 1.09 |
| ACCTACAGTC | 1.21 |
| ACCTAGTTGT | 1.06 |
| ACCTATGAGC | 0.933 |
| ACCTCAAGAG | 1.21 |
| ACCTCAGTGC | 1.52 |
| ACCTCATGTT | 1.01 |
| ACCTCGGCTT | 1.25 |
| ACCTGAGAAC | 1.08 |
| ACCTGAGATC | 1.04 |
| ACCTGATAGA | 0.984 |
| ACCTGATC | 2.19 |
| ACCTGATCGG | 1.02 |
| ACCTGGCGAG | 1.03 |
| ACCTGTAAAA | 0.952 |
| ACCTTAAGTT | 0.99 |
| ACCTTAGGGA | 1.01 |
| ACCTTAGTG | 0.983 |
| ACCTTTATAC | 1.52 |
| ACCTTTATTC | 1.05 |
| ACGAACAGT | 1.11 |

| Sequence | switch fluorescence ratio |
| --- | --- |
| ACGAACGGG | 1.48 |
| ACGAACTTA | 1.31 |
| ACGAAGCGGT | 1.24 |
| ACGAAGTTGG | 1 |
| ACGAATTAC | 2.44 |
| ACGACAAAT | 1.19 |
| ACGACAAGT | 1.01 |
| ACGACAGGAT | 1.08 |
| ACGACCGTTA | 1.06 |
| ACGACGCGGT | 1.02 |
| ACGACGCGTG | 1.08 |
| ACGACTATCA | 1.09 |
| ACGACTGAAT | 1.08 |
| ACGACTTAAA | 0.969 |
| ACGAGAAACA | 1.04 |
| ACGAGAACAG | 1.17 |
| ACGAGAAGAG | 1.05 |
| ACGAGATTAG | 1.02 |
| ACGAGATTTT | 1.01 |
| ACGAGCTGTT | 1.08 |
| ACGAGGGGTG | 0.988 |
| ACGAGGTAGC | 0.986 |
| ACGATACGGC | 1.51 |
| ACGATACTAA | 1.23 |
| ACGATACTGG | 1.49 |

| Sequence | switch fluorescence ratio |
| --- | --- |
| ACGATATCGG | 0.959 |
| ACGATCATGG | 1.01 |
| ACGATCGATG | 0.997 |
| ACGATGAATT | 1.03 |
| ACGATGAGCG | 1.01 |
| ACGATGGTGG | 0.837 |
| ACGATGTAGG | 0.999 |
| ACGATGTCAT | 1.04 |
| ACGATGTCGT | 1.03 |
| ACGCAAGGGG | 1.48 |
| ACGCACGACT | 1.58 |
| ACGCACTAGG | 1.47 |
| ACGCAGACTA | 1.88 |
| ACGCAGAGTT | 1.07 |
| ACGCAGATCG | 1.04 |
| ACGCAGATTG | 1.06 |
| ACGCAGCGTT | 1.08 |
| ACGCATACCG | 1.17 |
| ACGCATCCGC | 1.61 |
| ACGCATGAAG | 1.01 |
| ACGCATGGAC | 3.21 |
| ACGCATGTTC | 1.31 |
| ACGCCAACCC | 1.46 |
| ACGCCGCAT | 2.7 |
| ACGCGAGCCA | 1.02 |
